# Source: the RNAGym collection of RNA variant scans (doi:10.7554/elife.90254)
# Read counts are not given, so values of variants with three or more changes are uncertain.
# B1: LINE1-full (parent)
# chain: UACGUAGGUGGUUUUCCCCUGAUAGUGCUAAGGGGGCCUGGAAGUUUGGACUGGGCAGAGCUCAACACAGCGUGGCAAAGUGGCUGUGGCUAGACUGCCUCUCUGGAUUCCUCGUCACUCAGCAGGGCAUCUCUGAGAGAAAUGCC
# Variants of: B1
# Assay: self-cleavage, relative activity (ratio to wild type); higher = more cleavage; in vitro, sequencing; the parent is a self-cleaving ribozyme
row,Variant,self-cleavage
1,UACGUAGGUGGUUUUCCCCUGAUAGUGCUAAGGGGGCCUGGAAGUAUGGACUGGGCAGAGCUCUACACAGCGUGGCAAAGAGGCUGUGGCUAGACUGCCUCUCUGGAUUCCUCGUCACUCAGCAGGGCAUCUCUGAGGGAAACGCC [U46A A64U U81A A138G U143C],0.56
2,UACGUAGGAGGUCUUCCCCUGAUAGUGCUAAGGGGGCCUGGAAGUUUGGACUGGGCAGAGCUCAACACAGCGUGGCAAAGUGGCUGUGGCUAGACUGUCUCUCUGGAUUCCUCGUCACUCAGAAGGGCAUCUCUGAGAGAAAUGCC [U9A U13C C98U C123A],0.52
3,UACGCAGGUGGUUUUCCCCUGAUAGUGCUAAGGGGGCCUGGAAGUUUGGACUGGGCAGAGCUCAACACAGCGUGGCAAAGUGGCUGUGGCCAGACUGCCUCUCUGGAUUCCUCGUCACUCAGCAGGGCAUCUCUGAGGGAAAUGCC [U5C U91C A138G],1.19
4,UACGUAGGUGGUUUUCCCCUGAUAGUGCUAAGGGGGCCUGGAAGUUUGGACUGGGCAGAGCUCAACACAGCGUGGCAAAGUGGCUGUGGCUAGACUGCCUCACUGGAUUCCUCGUCACUCAGCAGGGCAUCUCUGAGAGAGUUGCC [U102A A141G A142U],0.88
5,UACGUAGGUGGGUUUACCCUGAUAGUGCUAAGGGGGCCUGGAAGUUUGGACUGGGCAGAGCUCAACACAGCGUGGCAAAGUGGCUGUGGCUAGACUGCCUCUCUGGAUACCUCGUCACUCAGCAGGGCAUCUCUGAGAGAAAUGCC [U12G C16A U109A],0.92
6,UACGUAGGUGGUUAUCCCCUGAUAGUGCUAAGGGGGCCUGGAAGUUUGGACAGGGCAGAGCUCAACACAGCGUGGCAAAGUGGCUGUGGCUAGGCUGCCUCUCUGGAUUCCUCGUCACUCAGCAGGGCAUCUCUGUGAGAAAUGCC [U14A U52A A94G A136U],0.68
7,UACGUAGGCGGUUUUCCCCUGAUAGUGUUAAGGGGGCCUGGAAGUUUGGUCUGGGCAGAGCUCAACACAGCGUGGCAAAGUGGCUGUGGCUAGACUGCCUCUCUGGAUUCCUCGUCACUCAGCAGGGCAUCUCUGAGAGAAAUGCC [U9C C28U A50U],1.01
8,UACGUAGGUGGUUUUCCCCUGAUAGUGCUAAGGGGGCCUGGUAGUUUGGACUGGGCAGAGCUCAACACAGCGUGGCAAAGUGGCUGUGGCUAGACUGCCUCUCUGGAUUCCUCGUCACUCAGCAGGGCAUCUCUGUGAGAACUGUC [A42U A136U A142C C145U],1.57
9,UACGUAGGUGGUUUUCCCCCGAUAGUGCUAAGGGGGCCUGGAAGUUUGGACUGGGCAGAGCUCAACACAGCGUGGCAAGGUGGCUGUGGCUAGGCUGCCUCUCUGGAUUCCUCGUCACUCAGCAGGGCAUCUCUGAGAGAAAUGCC [U20C A79G A94G],0
10,UACGCAGGUGGUUUUCCCCUGAUAGUGCUAAGGGGGUCUGGAAGUUUGGACUGGGCAGAGCUCAACACAGCGUGGCAAGGUGGCUGUGGCUAGACUGCCUCUCUGGAUUCCUCGUCACUCAGCAGGGCAUCUCUGAGAGAAAUGCC [U5C C37U A79G],0.93
11,UACGUAGGCGGUAUUCCCCUGAUAGUGCUAAGGGGGCCUGGAAGUUUGGACUGGGCGGAGCUCAAUACAGCGUGGCAAAGAGGCUGUGGCUAGACUGCCUCACUGGAUUCCUCGUCACUCAGCAGGGCAUCUCUGAGAGAAAUGCC [U9C U13A A57G C66U U81A U102A],0.1
12,UACGUAGGUGGUUUUCCCCUGAUAGUGCUAAGGGGGCCUGGAAGUUUGGACUGGGCAGAGCUCAACACGGCUUGGCAAAGUGGCUGUGGCUAGACUGCCUCUCCGGAUUCCUCGUCACUCAGCUGGGCAUCUCUGAGAGAAAUGCC [A69G G72U U104C A124U],0
13,UACGUAGGUGGUUCUCCCCUGACAGUGCUAAGGGGGCCUGGAAGUUUGGACUGGGCAGAGCUCAACACAGCGUGGCAAAGUGGCUGUGGCUAGACUGCCUCUCUGGAUUCCUCGUCACUCAGCAGCGCAUCUCUGAGAGAAAUGCC [U14C U23C G126C],1.17
14,UACGUAGGUGGUUUUCCCCUGAUAGUGCUAAGGGGGCCUGGAAGUUCGGACUGGGCAGAGCUCAACACAGCGUGGCAAAGUGGCUGUGGCUAGACUGCCUCUCUGGAUUCCUCGUCACUCAGCAGGGCACCUCUGAGAGAAAUACC [U47C U130C G144A],2.01
15,UACGUAGGUGGUUUUCCCCUGAUAGUGCUAAGGGGGCCUGGAAGUCUGGACUGGGCAGAGCUCAACACAGCGUGGCAAAGUGGCUGUGGCUAGACUGCCUCUCUGGUUUCCUCGUCACUCAGCAGGGCAUCUCUGAGGGAAAUGCC [U46C A107U A138G],1.11
16,UACGUAGGUGGUUUUCCCCUGAUAGUGCUAAGGGGGCCUGGAAGUUCGGACUGGGCAGAGCUCAACACAGCGUGGCAAAGUGGCUGUGGCUAGCCUGCCUCUCUGGAUUCCUCGUCACUCAGCAGGGCAUCUCUGAGAGAAGUGCC [U47C A94C A142G],0.11
17,UACGUAGGAGGUUUUCCCCUGAUAGUGCUAAGGGGGCCUGGAAGCUUGGACUGGGCAGAGCUCAACACAGCGUGGCAAAGUGGCUGUGGCUAGGCUGCCUCUCUGGAUUCCUCGUCACUCAGCAGGGCAUCUCUGAGAGAAAUGCC [U9A U45C A94G],1.64
18,UACGUAGGUGGUUUUCCCCUGAUAGUGCUAAGGGGGCCUGGAAGUUUGGACUGGGCAUAGCUCAACACAGCGAGGCAAGGUGGCUGUGGCUAGACUGCCCCCCUGGAUUCCUCGUCACUCAGCAGGGCAUCUCUGUGAGAAAUGCC [G58U U73A A79G U100C U102C A136U],0.04
19,UCCGUAGGUGGUUCUCCCCUGAUAGUGCUAAGGGGGCCUGGAAGUUUGGACUGGGCAGGGCUCAACACAGCGUGGCAAAGUGGCUGUGGCUAGACUGCCUCUCUGGAUUCCUCGUCACUCAGCAGGGCAUCUCUGUGAGAAAUGCC [A2C U14C A59G A136U],0
20,UACGUAGGUGGUUUUCCCCUGAUAGUGCUAUGGGGGCCUGGAAGUUUGGACUGGGCAGAGCUCAACACAGCGUGGCAAGGUGGCUGUGGCUAGACUGCCUCUCUGGAUUCCUCGUCACUCAGCGGGGCAUCUCUGAGAGAAAUGCC [A31U A79G A124G],0
